Data: the supplement of paper PMC7826260
This is one part of the list. Viral Rep nickase domains cut single-stranded DNA in vitro for 1 h at 37 °C with 3 µM enzyme; only the middle of the 90-letter strands is printed. A value is the log2 ratio of uncut reads to the pool without enzyme; more negative means more cut, near 0 not cut, and no call is made. Counts are relative to all reads; values above 0 arise when much of the pool is cut.

Assays:
Experiment in all cases: uncleaved DNA left, log2 of reads against the no-enzyme library (log2 ratio); higher = less cleavage (more negative = more Rep cleavage of the k-mer); sequences stand for … in CTCGTCCG…ACCGGAGA
[1] = system: T1, Rep nickase domain of Muscovy duck circovirus
T1 sequence (protein, residues 1-111, tag omitted): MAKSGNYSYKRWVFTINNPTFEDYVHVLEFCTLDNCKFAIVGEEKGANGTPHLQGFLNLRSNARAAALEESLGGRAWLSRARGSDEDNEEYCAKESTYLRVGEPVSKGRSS
Protocol: (§1)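 A pool of 90-nt single-stranded DNAs with seven random bases just before the constant AC of the nick site (name = the seven bases) was cut by 3 µM recombinant His6-SUMO-tagged Rep nickase domain (300 nM DNA, 50 mM HEPES pH 8.0, 50 mM NaCl, 1 mM MnCl2, 1 h, 37 °C, three replicates). Uncut DNA was amplified and sequenced.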

[2] = system: T2, Rep nickase domain of banana bunchy top virus
T2 sequence (protein, residues 1-94, tag omitted): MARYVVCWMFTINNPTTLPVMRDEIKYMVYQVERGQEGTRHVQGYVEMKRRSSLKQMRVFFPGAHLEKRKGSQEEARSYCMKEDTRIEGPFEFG
Protocol: as §1

[3] = system: T3, Rep nickase domain of cabbage leaf curl virus
T3 sequence (protein, residues 1-116, tag omitted): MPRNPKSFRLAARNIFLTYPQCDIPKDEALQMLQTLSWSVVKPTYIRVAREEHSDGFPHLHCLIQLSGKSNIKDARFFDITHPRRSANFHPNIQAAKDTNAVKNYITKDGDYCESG
Protocol: as §1

[4] = system: T4, Rep nickase domain of chickpea chlorotic dwarf virus
T4 sequence (protein, residues 1-124, tag omitted): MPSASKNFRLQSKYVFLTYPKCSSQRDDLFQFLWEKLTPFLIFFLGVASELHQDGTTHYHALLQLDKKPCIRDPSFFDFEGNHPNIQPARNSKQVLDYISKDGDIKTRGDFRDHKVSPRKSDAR
Protocol: as §1

[5] = system: T5, Rep nickase domain of faba bean necrotic yellows virus
T5 sequence (protein, residues 1-98, tag omitted): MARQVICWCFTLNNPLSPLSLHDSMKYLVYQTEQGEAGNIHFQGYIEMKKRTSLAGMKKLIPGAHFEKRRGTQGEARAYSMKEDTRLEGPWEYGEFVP
Protocol: as §1

[6] = system: T6, Rep nickase domain of maize striate mosaic virus
T6 sequence (protein, residues 1-117, tag omitted): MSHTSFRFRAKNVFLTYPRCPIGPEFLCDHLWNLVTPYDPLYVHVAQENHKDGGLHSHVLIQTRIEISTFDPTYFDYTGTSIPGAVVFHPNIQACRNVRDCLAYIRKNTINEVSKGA
Protocol: as §1

[7] = system: T7, Rep nickase domain of porcine circovirus 2
T7 sequence (protein, residues 2-116, tag omitted): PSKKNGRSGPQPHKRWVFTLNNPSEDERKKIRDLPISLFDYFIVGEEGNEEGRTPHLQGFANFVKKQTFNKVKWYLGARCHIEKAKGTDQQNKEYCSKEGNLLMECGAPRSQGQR
Protocol: as §1

[8] = system: T8, Rep nickase domain of tomato yellow leaf curl virus
T8 sequence (protein, residues 1-136, tag omitted): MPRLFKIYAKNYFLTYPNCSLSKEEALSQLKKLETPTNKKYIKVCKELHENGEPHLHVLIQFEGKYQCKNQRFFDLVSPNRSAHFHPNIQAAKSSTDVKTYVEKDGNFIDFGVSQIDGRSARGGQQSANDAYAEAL
Protocol: as §1

[9] = system: T9, Rep nickase domain of wheat dwarf virus
T9 sequence (protein, residues 1-137, tag omitted): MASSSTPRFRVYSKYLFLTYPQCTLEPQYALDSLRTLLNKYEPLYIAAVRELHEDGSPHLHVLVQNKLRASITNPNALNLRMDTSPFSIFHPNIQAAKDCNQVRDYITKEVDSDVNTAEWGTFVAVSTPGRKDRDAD
Protocol: as §1

Sequence | uncleaved DNA left (log2) [1] | uncleaved DNA left (log2) [2] | uncleaved DNA left (log2) [3] | uncleaved DNA left (log2) [4] | uncleaved DNA left (log2) [5] | uncleaved DNA left (log2) [6] | uncleaved DNA left (log2) [7] | uncleaved DNA left (log2) [8] | uncleaved DNA left (log2) [9]
TATTACA | -3.78 | -1.67 | -2.45 | -3.06 | -0.97 | -0.677 | -3.67 | 0.193 | -2.42
AACGCCA | -0.0741 | -0.0243 | -0.0814 | -1.67 | 0.0691 | 0.00565 | -0.0215 | -0.0488 | -0.0918
TTCGAGA | 0.251 | 0.173 | 0.956 | 1.41 | 0.166 | 1.67 | 0.317 | 0.128 | 0.257
GAGTCAG | -0.0285 | 0.0896 | 0.122 | 0.725 | 0.0297 | -0.473 | 0.0313 | 0.123 | 0.152
GCCCCAC | -0.169 | 0.0759 | 0.0574 | 0.26 | -0.0365 | 0.0916 | -0.148 | 0.0369 | 0.0593
AAGGGAC | -0.0203 | 0.112 | 0.57 | 1.65 | -0.092 | 1.34 | 0.17 | 0.0491 | 0.108
CTCTTCA | -0.163 | 0.0389 | -0.0899 | -1.37 | 0.015 | -0.647 | -0.179 | -0.047 | 0.0852
AATTTCT | -4.03 | -3.57 | -1.15 | -3.14 | -0.177 | -1 | -4.53 | 0.0588 | -0.341
ATTTAAG | -0.0301 | 0.0178 | -0.814 | -0.246 | 0.104 | -1.18 | 0.152 | 0.0815 | 0.0181
ATCCGTA | -0.0343 | -0.0518 | -0.119 | -0.733 | 0.0448 | -0.892 | -0.0429 | -0.0119 | 0.0235
CCATAGA | 0.031 | 0.0622 | -0.336 | -0.293 | 0.17 | -1.11 | 0.117 | 0.0519 | 0.0119
TGTGACA | 0.0948 | 0.0119 | 0.532 | 1.11 | -0.0516 | 1.84 | 0.156 | 0.144 | 0.206
ACGTCGC | -0.0155 | -0.0791 | -0.675 | -0.679 | 0.0263 | -0.925 | 0.00341 | -0.158 | -0.234
CCACTGC | -0.00691 | 0.132 | -0.205 | -0.368 | 0.111 | -0.819 | 0.104 | 0.026 | 0.0582
TGCAAAA | 0.0929 | 0.176 | 0.101 | 0.153 | 0.129 | -0.515 | -0.00659 | 0.0446 | 0.0543
GTTCAGG | 0.00275 | -0.0588 | 0.347 | 1.26 | -0.0133 | 1.71 | 0.0669 | -0.109 | 0.1
AGCAGGA | 0.0129 | 0.0623 | 0.237 | 0.582 | -0.00731 | 0.475 | 0.0807 | -0.00575 | 0.0436
GACCCCG | -0.197 | -0.198 | -0.75 | -0.837 | -0.0806 | -0.822 | -0.41 | -0.201 | -0.165
CGTTTGA | -0.0332 | -0.012 | -0.13 | -0.0988 | 0.0372 | -0.613 | 0.0491 | -0.00446 | 0.0464
ACGCGCA | -0.0779 | -0.104 | -0.765 | -0.802 | -0.022 | -1.02 | -0.141 | -0.0523 | -0.272

Sequence | uncleaved DNA left (log2) [1] | uncleaved DNA left (log2) [2] | uncleaved DNA left (log2) [3] | uncleaved DNA left (log2) [4] | uncleaved DNA left (log2) [5] | uncleaved DNA left (log2) [6] | uncleaved DNA left (log2) [7] | uncleaved DNA left (log2) [8] | uncleaved DNA left (log2) [9]
AGTACAG | 0.0898 | 0.146 | -0.256 | -0.505 | 0.0482 | -0.539 | 0.17 | 0.143 | 0.0407
ACTGCCC | 0.103 | -0.0275 | 0.0638 | 0.441 | 0.00492 | 0.229 | 0.0304 | 0.0341 | -0.00705
TTAGAAT | 0.0576 | 0.153 | 0.368 | -0.124 | 0.0509 | 0.525 | 0.0372 | 0.0501 | 0.0479
AAATCAA | 0.0312 | 0.25 | 0.288 | 0.39 | 0.126 | 0.221 | 0.131 | 0.162 | 0.231
CCAAACA | -0.0992 | -0.0586 | -0.186 | -2.2 | -0.0509 | -0.649 | -0.103 | -0.0812 | -0.114
TCGTATC | 0.0358 | -0.0282 | 0.233 | 0.0852 | -0.0691 | -0.297 | -0.209 | 0.0749 | 0.0958
GAGGTTG | 0.0746 | 0.024 | 0.0969 | 0.292 | 0.0609 | 0.673 | 0.0306 | 0.0075 | -0.0357
GCTGACC | -0.00953 | 0.104 | 0.0892 | 0.729 | 0.0274 | 1.05 | 0.155 | -0.0122 | 0.0342
GGTCGAG | 0.114 | 0.0308 | 0.856 | 1.82 | -0.0674 | 2 | 0.183 | 0.0747 | 0.116
CAATAAT | -3.67 | -2.4 | -4.25 | -4.07 | -0.444 | -3.77 | -4.2 | -1.71 | -4.13
TTGCTGG | 0.123 | -0.0254 | -0.395 | -0.295 | 0.0428 | -0.604 | 0.191 | 0.101 | 0.0302
TGATGTC | 0.0344 | -0.0281 | 0.182 | 0.257 | 0.0407 | -0.014 | 0.0478 | 0.0364 | 0.0621
AGGGATA | 0.0823 | 0.0692 | 0.265 | 1.43 | 0.0468 | 1.65 | 0.122 | 0.0356 | 0.05
CGGTTCG | 0.017 | 0.00983 | -0.786 | 0.00615 | -0.0761 | -0.754 | 0.13 | -0.0103 | -0.0953
AAGCCCC | -0.0635 | -0.145 | 0.0534 | -0.391 | -0.101 | -0.0023 | -0.00457 | -0.0605 | 0.0363
CGATTAG | 0.166 | 0.2 | -0.171 | -0.093 | 0.217 | -0.739 | 0.33 | 0.19 | 0.173
GACGAAG | -0.0435 | -0.101 | -0.153 | -0.0465 | -0.00452 | -0.715 | -0.0532 | -0.0833 | -0.0703
CTCGATC | 0.119 | -0.00354 | 0.0036 | -0.0958 | -0.0598 | -0.433 | -0.131 | -0.0447 | -0.0391
GAATGCC | -0.0186 | -0.0313 | -0.572 | -0.879 | 0.00515 | -0.718 | -0.05 | 0.0325 | -0.0856
GATCGGT | -0.0349 | -0.138 | 0.241 | 0.633 | -0.0605 | 0.982 | -0.105 | 0.0404 | -0.05

Sequence | uncleaved DNA left (log2) [1] | uncleaved DNA left (log2) [2] | uncleaved DNA left (log2) [3] | uncleaved DNA left (log2) [4] | uncleaved DNA left (log2) [5] | uncleaved DNA left (log2) [6] | uncleaved DNA left (log2) [7] | uncleaved DNA left (log2) [8] | uncleaved DNA left (log2) [9]
TCGCCAC | 0.0797 | 0.0916 | 0.173 | 0.0607 | 0.042 | -0.304 | 0.0206 | 0.0784 | 0.159
AGAGCAT | -0.00943 | 0.0735 | 0.258 | 0.727 | -0.00187 | 0.77 | -0.0392 | -0.0292 | 0.0905
AGTGGGC | -0.0146 | 0.14 | 0.312 | 0.733 | 0.0324 | 0.34 | 0.267 | -0.0186 | 0.108
CGGACCG | 0.0627 | 0.0901 | 0.0214 | 0.398 | 0.00825 | 0.138 | 0.182 | -0.073 | 0.116
CTCTAGG | -0.0575 | 0.0153 | 0.201 | 1.2 | 0.0564 | 0.881 | 0.107 | -0.0724 | -0.0248
TTAGCAA | 0.0633 | 0.0754 | 0.199 | 1.01 | -0.0748 | -0.107 | -0.00592 | 0.0517 | 0.168
CGGTGGG | 0.0478 | -0.0401 | -0.482 | -0.427 | -0.0112 | -0.562 | 0.0741 | 0.0693 | -0.035
GACCCGA | 0.013 | 0.0398 | 0.465 | 1.15 | -0.0633 | 0.562 | 0.0944 | -0.013 | 0.122
CATGGGT | 0.0574 | 0.0469 | 0.13 | 1.16 | 0.0117 | 1.27 | 0.13 | -0.0324 | 0.0748
TGTGCAC | -0.0646 | 0.0664 | 0.178 | 0.621 | -0.0669 | 0.766 | 0.037 | 0.0443 | 0.0769
GTTACCT | 0.0781 | 0.084 | 0.291 | 0.424 | 0.0485 | 1.63 | -0.00336 | 0.0262 | 0.106
GTTCCTT | 0.0948 | 0.238 | 0.37 | 0.848 | 0.0402 | 1.78 | 0.165 | 0.134 | 0.237
GGCTGCG | 0.0717 | -0.0166 | -0.649 | 0.308 | -0.0359 | -0.379 | 0.0632 | -0.284 | -0.164
CGTCTGA | -0.177 | -0.037 | -0.0705 | 0.535 | -0.197 | 1.42 | 0.0633 | 0.0545 | 0.0324
TAATCGC | -0.0232 | 0.0273 | -3.61 | -2.86 | 0.0757 | -2.64 | 0.0415 | -0.0081 | -3.12
CATCAGG | 0.149 | 0.136 | 0.248 | 0.819 | 0.163 | 0.00646 | 0.242 | -0.00186 | 0.108
GTGTGAG | -0.0345 | -0.038 | -0.302 | -0.168 | 0.0955 | -0.727 | 0.0139 | 0.00945 | -0.169
TTATTTG | 0.0345 | -0.00943 | -0.506 | -0.7 | 0.0178 | -1.15 | 0.0966 | 0.00456 | -0.057
ACTTTGG | 0.106 | 0.0469 | -0.589 | -0.472 | 0.118 | -1.17 | 0.281 | 0.117 | 0.12
AGCTCGG | -0.052 | 0.113 | 0.136 | 0.95 | 0.0237 | 1.31 | 0.131 | 0.0518 | 0.134
